Test results: the supplement of paper PMC10369915
Some of the results follow. Rule as the data show it: active = 3.2 or more and inactive = the rest. Only a few entries rise above the background.

Target: SHP2 C-SH2 domain E139D
Experiment: enrichment score (SH2-bound / input frequency) (ratio); bacterial display of known human phosphotyrosine sites (pTyr-Var adds point mutants) read by sequencing; higher = stronger binding; tyrosines were phosphorylated by kinases first
Details: peptide library: pTyr-Var
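Also: displayed peptides selected on beads carrying the immobilized SH2 domain, with library peptides lacking any tyrosine serving as negative controls.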

Row | Binder | enrichment score
1 | GLSDLYVKIHL [SYT2_Y309_P308L] | inactive: 1.85
2 | TVHCDYLNIPH [TAF1L_Y1385] | inactive: 1.42
3 | SSPQPYLVPFL [TAF4_Y652] | inactive: 1.02
4 | IVFTSYFLTIL [TAS2R16_Y239] | inactive: 3.17
5 | IVFTSYVLTIL [TAS2R16_Y239_F240V] | inactive: 2.42
6 | IMFTSYFLTIL [TAS2R16_Y239_V235M] | inactive: 2.98
7 | QKNVSYVSRVS [TASOR_Y1043_T1046R] | inactive: 0.936
8 | DFPIGYPSYLA [TBCK_Y153] | inactive: 0.988
9 | DGQSVYKLTDF [TBK1_Y153] | inactive: 0.667
10 | NQELIYEGRRL [TBK1_Y354] | inactive: 0.512
11 | FQEPVYSVAFS [TBL1X_Y509_H504Y_YF] | inactive: 1.13
12 | DPHQQYYIAMD [TBX15_Y159] | inactive: 0.855
13 | EVKRLYGSVCD [TC2N_Y154] | inactive: 0.563
14 | EVTRLYGSVCD [TC2N_Y154_K151T] | inactive: 1.01
15 | QPSPSYDSSRG [TCF12_Y70] | inactive: 0.452
16 | QPSPSYDSSGG [TCF12_Y70_R74G] | inactive: 0.537
17 | TAGFIYEKWEI [TEC_Y360_S359I] | inactive: 1.9
18 | EERKTYVNTML [TEK_Y1102_T1106M] | inactive: 1.16
19 | VNTTLYEKFTY [TEK_Y1108] | inactive: 0.871

Target: SHP2 C-SH2 domain wild-type
Experiment: as above
Details: peptide library: pTyr-Var

Row | Binder | enrichment score
20 | GLSDLYVKIHL [SYT2_Y309_P308L] | inactive: 2.35
21 | TVHCDYLNIPH [TAF1L_Y1385] | inactive: 1.75
22 | SSPQPYLVPFL [TAF4_Y652] | inactive: 1.36
23 | IVFTSYFLTIL [TAS2R16_Y239] | active: 3.22
24 | IVFTSYVLTIL [TAS2R16_Y239_F240V] | inactive: 2.42
25 | IMFTSYFLTIL [TAS2R16_Y239_V235M] | active: 3.84
26 | QKNVSYVSRVS [TASOR_Y1043_T1046R] | inactive: 0.641
27 | DFPIGYPSYLA [TBCK_Y153] | inactive: 0.708
28 | DGQSVYKLTDF [TBK1_Y153] | inactive: 0.567
29 | NQELIYEGRRL [TBK1_Y354] | inactive: 0.644
30 | FQEPVYSVAFS [TBL1X_Y509_H504Y_YF] | inactive: 1.1
31 | DPHQQYYIAMD [TBX15_Y159] | inactive: 0.848
32 | EVKRLYGSVCD [TC2N_Y154] | inactive: 0.856
33 | EVTRLYGSVCD [TC2N_Y154_K151T] | inactive: 1.06
34 | QPSPSYDSSRG [TCF12_Y70] | inactive: 0.499
35 | QPSPSYDSSGG [TCF12_Y70_R74G] | inactive: 0.654
36 | TAGFIYEKWEI [TEC_Y360_S359I] | inactive: 1.71
37 | EERKTYVNTML [TEK_Y1102_T1106M] | inactive: 1.37
38 | VNTTLYEKFTY [TEK_Y1108] | inactive: 1.06

Target: SHP2 N-SH2 domain L43F
Experiment: as above
Details: peptide library: pTyr-Var

Row | Binder | enrichment score
39 | GLSDLYVKIHL [SYT2_Y309_P308L] | inactive: 2.08
40 | TVHCDYLNIPH [TAF1L_Y1385] | inactive: 1.11
41 | SSPQPYLVPFL [TAF4_Y652] | inactive: 3.19
42 | IVFTSYFLTIL [TAS2R16_Y239] | active: 3.36
43 | IVFTSYVLTIL [TAS2R16_Y239_F240V] | inactive: 2.42
44 | IMFTSYFLTIL [TAS2R16_Y239_V235M] | inactive: 2.83
45 | QKNVSYVSRVS [TASOR_Y1043_T1046R] | inactive: 0.796
46 | DFPIGYPSYLA [TBCK_Y153] | inactive: 0.989
47 | DGQSVYKLTDF [TBK1_Y153] | inactive: 0.513
48 | NQELIYEGRRL [TBK1_Y354] | inactive: 0.542
49 | FQEPVYSVAFS [TBL1X_Y509_H504Y_YF] | inactive: 1.08
50 | DPHQQYYIAMD [TBX15_Y159] | inactive: 0.818
51 | EVKRLYGSVCD [TC2N_Y154] | inactive: 0.645
52 | EVTRLYGSVCD [TC2N_Y154_K151T] | inactive: 0.888
53 | QPSPSYDSSRG [TCF12_Y70] | inactive: 0.477
54 | QPSPSYDSSGG [TCF12_Y70_R74G] | inactive: 0.781
55 | TAGFIYEKWEI [TEC_Y360_S359I] | inactive: 2.03
56 | EERKTYVNTML [TEK_Y1102_T1106M] | inactive: 1.18
57 | VNTTLYEKFTY [TEK_Y1108] | inactive: 0.955

Target: SHP2 N-SH2 domain T42A
Experiment: as above
Details: peptide library: pTyr-Var

Row | Binder | enrichment score
58 | GLSDLYVKIHL [SYT2_Y309_P308L] | inactive: 2.29
59 | TVHCDYLNIPH [TAF1L_Y1385] | inactive: 1.32
60 | SSPQPYLVPFL [TAF4_Y652] | active: 5.15
61 | IVFTSYFLTIL [TAS2R16_Y239] | inactive: 2.78
62 | IVFTSYVLTIL [TAS2R16_Y239_F240V] | inactive: 2.39
63 | IMFTSYFLTIL [TAS2R16_Y239_V235M] | inactive: 2.33
64 | QKNVSYVSRVS [TASOR_Y1043_T1046R] | inactive: 0.685
65 | DFPIGYPSYLA [TBCK_Y153] | inactive: 0.667
66 | DGQSVYKLTDF [TBK1_Y153] | inactive: 0.577
67 | NQELIYEGRRL [TBK1_Y354] | inactive: 0.56
68 | FQEPVYSVAFS [TBL1X_Y509_H504Y_YF] | inactive: 1
69 | DPHQQYYIAMD [TBX15_Y159] | inactive: 0.779
70 | EVKRLYGSVCD [TC2N_Y154] | inactive: 0.459
71 | EVTRLYGSVCD [TC2N_Y154_K151T] | inactive: 0.766
72 | QPSPSYDSSRG [TCF12_Y70] | inactive: 0.186
73 | QPSPSYDSSGG [TCF12_Y70_R74G] | inactive: 0.792
74 | TAGFIYEKWEI [TEC_Y360_S359I] | inactive: 1.59
75 | EERKTYVNTML [TEK_Y1102_T1106M] | inactive: 1.11
76 | VNTTLYEKFTY [TEK_Y1108] | inactive: 0.847

Target: SHP2 N-SH2 domain T52S
Experiment: as above
Details: peptide library: pTyr-Var

Row | Binder | enrichment score
77 | GLSDLYVKIHL [SYT2_Y309_P308L] | inactive: 1.77
78 | TVHCDYLNIPH [TAF1L_Y1385] | inactive: 1.29
79 | SSPQPYLVPFL [TAF4_Y652] | active: 3.55
80 | IVFTSYFLTIL [TAS2R16_Y239] | inactive: 3.05
81 | IVFTSYVLTIL [TAS2R16_Y239_F240V] | inactive: 2.35
82 | IMFTSYFLTIL [TAS2R16_Y239_V235M] | inactive: 2.07
83 | QKNVSYVSRVS [TASOR_Y1043_T1046R] | inactive: 0.702
84 | DFPIGYPSYLA [TBCK_Y153] | inactive: 0.929
85 | DGQSVYKLTDF [TBK1_Y153] | inactive: 0.65
86 | NQELIYEGRRL [TBK1_Y354] | inactive: 0.575
87 | FQEPVYSVAFS [TBL1X_Y509_H504Y_YF] | inactive: 1.06
88 | DPHQQYYIAMD [TBX15_Y159] | inactive: 0.822
89 | EVKRLYGSVCD [TC2N_Y154] | inactive: 0.645
90 | EVTRLYGSVCD [TC2N_Y154_K151T] | inactive: 0.715
91 | QPSPSYDSSRG [TCF12_Y70] | inactive: 0.545
92 | QPSPSYDSSGG [TCF12_Y70_R74G] | inactive: 0.599
93 | TAGFIYEKWEI [TEC_Y360_S359I] | inactive: 1.92
94 | EERKTYVNTML [TEK_Y1102_T1106M] | inactive: 1.2
95 | VNTTLYEKFTY [TEK_Y1108] | inactive: 0.853

Target: SHP2 N-SH2 domain wild-type
Experiment: as above
Details: peptide library: pTyr-Var

Row | Binder | enrichment score
96 | GLSDLYVKIHL [SYT2_Y309_P308L] | inactive: 2.79
97 | TVHCDYLNIPH [TAF1L_Y1385] | inactive: 1.38
98 | SSPQPYLVPFL [TAF4_Y652] | inactive: 1.22
99 | IVFTSYFLTIL [TAS2R16_Y239] | active: 3.57
100 | IVFTSYVLTIL [TAS2R16_Y239_F240V] | inactive: 2.5
101 | IMFTSYFLTIL [TAS2R16_Y239_V235M] | active: 3.87
102 | QKNVSYVSRVS [TASOR_Y1043_T1046R] | inactive: 0.786
103 | DFPIGYPSYLA [TBCK_Y153] | inactive: 0.863
104 | DGQSVYKLTDF [TBK1_Y153] | inactive: 0.732
105 | NQELIYEGRRL [TBK1_Y354] | inactive: 0.627
106 | FQEPVYSVAFS [TBL1X_Y509_H504Y_YF] | inactive: 1.19
107 | DPHQQYYIAMD [TBX15_Y159] | inactive: 0.84
108 | EVKRLYGSVCD [TC2N_Y154] | inactive: 0.768
109 | EVTRLYGSVCD [TC2N_Y154_K151T] | inactive: 1.19
110 | QPSPSYDSSRG [TCF12_Y70] | inactive: 0.43
111 | QPSPSYDSSGG [TCF12_Y70_R74G] | inactive: 0.55
112 | TAGFIYEKWEI [TEC_Y360_S359I] | inactive: 1.61
113 | EERKTYVNTML [TEK_Y1102_T1106M] | inactive: 1.29
114 | VNTTLYEKFTY [TEK_Y1108] | inactive: 0.925
